Results as given in PubChem BioAssay AID1345082 (National Center for Advancing Translational Sciences (NCATS), 2018).
Several values for one entry are separate records, joined by “and”; a condition that tells them apart may be missing. Equal values may be shown once. Hit rate of the full screen: of about 94,000 compounds, about 4,000 (4.3%) were called active. The shares of active, inactive and inconclusive entries below differ from those in the screen. Calls follow the shape of the dose curve; as a rule, active = well fitted inhibition curve with a large enough effect; inconclusive = small, poorly fitted or top-dose-only effect; inactive = no such curve, though single readings can be large or run the other way. A potency beside an inconclusive call is a rough fit, not a confirmed value.

Test: Cytotoxic Profiling in NIH 3T3 Cell Line of Diverse Libraries Using Quantitative High-Throughput Screening; also: nearly all actives have a fitted effect of over 55% in size
Details: NIH 3T3 viability, CellTiter-Glo ATP luminescence, 48-72 h; activity change, negative = cytotoxicity: at 96.7 µM (top of the series) unless noted; series mostly up to 96.7 µM
How it was run: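 Cells were seeded at 400 per well, treated with pin-transferred compound, and kept 48 or 72 hr at 37 °C before CellTiter-Glo addition and luminescence imaging of cellular ATP.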
% is scaled to controls: 0 for no effect and ±100 for the full control effect; potency is read from the fitted curve at half-maximal effect; tags tell the direction and shape of the fitted curve.

SMILES | Potency | activity change, negative = cytotoxicity | outcome
CC(=O)Nc1ccc(S(=O)(=O)N[C@H]2CO[C@H]3[C@@H]2OC[C@H]3OC(=O)Nc2ccc(Oc3ccccc3)cc2)cc1 | inconclusive: 44.7 µM [inhibitor, partial curve, poor fit] | – | –
COc1ccc(C(=O)N2CCCN(c3cc(-c4ccc(F)cc4)[nH]n3)CC2)c(C)c1 | inconclusive: 8.91 µM [inhibitor, full curve] | – | –
COc1ccc(Cn2c(=O)c(C(=O)NCc3cccc(F)c3)nc3cccnc32)cc1 | inconclusive: 44.7 µM [inhibitor, partial curve, poor fit] | – | –
O=C(NCc1ccc(F)cc1)C1(CCO)CC12CCOCC2 (configuration not stated) | – | inactive: -2.67% | –
O=C1[C@@H]2C[C@@H](CN2C(=O)c2ccc(F)cc2)Oc2ccccc2N1Cc1ccc(OC(F)(F)F)cc1 | inconclusive: 50.1 µM [inhibitor, partial curve, poor fit] | – | –
COc1ccc(C(=O)N2CCCCCCNC(=O)[C@@H]3C[C@@H](c4nc(C(C)C)no4)C[C@@H]32)cc1F | inconclusive: 44.7 µM [inhibitor, partial curve, poor fit] | – | –
CCc1ccc(C(=O)Nc2cccc(-c3nnc4n3CCCC4)c2)cc1 | inconclusive: 39.8 µM [inhibitor, partial curve, poor fit] | – | –
COC(=O)CNC(=O)C1CCCCN1Cc1ccc(-c2ccsc2)cc1 (configuration not stated) | inconclusive: 50.1 µM [inhibitor, partial curve, poor fit] | – | –
FC(F)(F)c1cccc(C2=NOC3(CCCN(Cc4ccccc4)C3)C2)c1 (configuration not stated) | inconclusive: 50.1 µM [inhibitor, partial curve, poor fit] | – | –
CN(C)C(=O)C1CN(C(=O)Nc2cccc(Cl)c2F)CC12CCOCC2 (configuration not stated) | – | inactive: -7.34% | –
COc1ccc(-n2c(=O)c3c(n2Cc2ccccc2)CN(C(=O)c2ccnn2C)CC3)cc1 | active: 35.5 µM | – | –
COCCNC(=O)c1nc(-c2cccc(C(F)(F)F)c2)c2ccccn12 | inconclusive: 44.7 µM [inhibitor, partial curve] | – | –
CC(C)NC(=O)C1CCC(=O)N1C1CCN(C(=O)Cc2ccc(Cl)cc2)CC1 (configuration not stated) | – | inactive: -13.5% | –
Cc1nonc1OCCNC1CCC2(CCNCC2)CC1 | inconclusive: 100 µM [inhibitor, partial curve, poor fit] | – | –
COc1ccccc1-c1cccc(CN2CCCC(C(=O)N3CCC(c4ccccc4)CC3)C2)c1 (configuration not stated) | inconclusive: 44.7 µM [inhibitor, partial curve, poor fit] | – | –
CCc1ccc(C(=O)N2CCN(C(=O)c3nnn4c3COC(c3ccc(OC)cc3)C4)CC2)cc1 (configuration not stated) | – | inactive: -16.9% | –
C#CCNC(=O)c1cc(-c2cccc(F)c2)nc2c1cnn2C | inconclusive: 56.2 µM [inhibitor, partial curve, poor fit] | – | –
O=C(O)c1cnc(NCc2cccnc2)nc1-c1ccc(Cl)cc1 | inconclusive: 79.4 µM [inhibitor, partial curve, poor fit] | – | –
Cc1nnc(-c2cc(-c3cccc(CO)c3)ccn2)n1Cc1ccccc1 | inconclusive: 79.4 µM [inhibitor, partial curve] | – | –
COCC(=O)NC[C@@H]1C=C(C)[C@H](CC(=O)NCc2ccc(F)cc2)C[C@H]1C(C)C | inconclusive: 56.2 µM [inhibitor, partial curve, poor fit] | – | –
O=C(OCc1ccccc1)N1CCC2(C1)C(=NC1CCCC1)NC(=O)N2c1cccnc1 (configuration not stated) | – | inactive: -9.98% | –

SMILES | Potency | activity change, negative = cytotoxicity | outcome
O=C(NCC12CCCC=C1N(CC1CC1)C(=O)CC2)c1ccccc1 (configuration not stated) | – | inactive: -20.5% | –
O=c1[nH]c(N2CCOCC2)nc2c1CCN(Cc1cccc(Cl)c1F)CC2 | inconclusive: 39.8 µM [inhibitor, partial curve] | – | –
COCC1CN(C)CC12CCN(Cc1ccc(C#N)cc1)CC2 (configuration not stated) | – | inactive: -24.3% | –
CN(C)CC1(O)CCC2(CCN(C(=O)Cn3c(=O)oc4ccccc43)CC2)CC1 | – | inactive: -10.4% | –
COc1cccc(CNC(=O)c2ccc3nc(-c4ccnc(Cl)c4)oc3c2)c1 | – | inactive: -29.6% | –
O=C1Nc2ccccc2C12CCN(S(=O)(=O)c1cccs1)C2 (configuration not stated) | inconclusive: 39.8 µM [inhibitor, partial curve, poor fit] | – | –
Cc1ccc(NC(=O)CN2C(=O)NC(c3ccc(Cl)cc3)C3=C2COC3=O)c(Cl)c1 (configuration not stated) | inconclusive: 44.7 µM [inhibitor, partial curve, poor fit] | – | –
Cc1ccc(NC(=O)c2cnc(-c3ccccc3)nc2-c2ccncc2)cc1C | inconclusive: 50.1 µM [inhibitor, partial curve, poor fit] | – | –
CCN1c2cc(C(=O)Nc3cccc(Cl)c3)ccc2C(=O)N2CCCCC21 (configuration not stated) | inconclusive: 31.6 µM [inhibitor, full curve, poor fit] | – | –
c1cc(-c2cc3c(ccn3Cc3ccncc3)c(N3CCOCC3)n2)c2cn[nH]c2c1 | active: 14.1 µM | – | –
O=C(O)CCC(=O)N1Cc2ccccc2CC2(CCCN(CC3CCCC3)C2)C1 (configuration not stated) | – | – | inactive
Nc1nc(C2CC(O)C2)cc(N2CCC(Cc3ccc(F)cc3)CC2)n1 (configuration not stated) | active: 15.8 µM | – | –
COc1ccc(C(=O)N[C@H]2CC[C@]3(C)CC[C@@H]4[C@H](OC(=O)[C@H]4C)[C@H]3[C@@H]2C)cc1 | – | inactive: -9.62% [at 174 µM] | –
Cc1cc(F)ccc1CN1CCC(CO)(CN2CCCC2)CC1 | inconclusive: 50.1 µM [inhibitor, partial curve, poor fit] | – | –
O=C(c1ccc(C(F)(F)F)cc1)N1CCC2(C1)C(=O)N(CCc1ccccc1)c1ccccc12 (configuration not stated) | inconclusive: 39.8 µM [inhibitor, partial curve, poor fit] and active: 39.8 µM | – | –
COc1cccc(CC(=O)N2CCC3(CC2)N(C)C(=O)CS3(=O)=O)c1 | inconclusive: 56.2 µM [inhibitor, single point] | – | –
CN(Cc1ccc(-c2ccccc2)cc1)C(=O)c1ccc(F)cc1 | inconclusive: 79.4 µM [inhibitor, partial curve] | – | –
O=C(NCCCc1ccccc1)C1CCCCN1Cc1ccc(-c2cccs2)cc1 (configuration not stated) | inconclusive: 39.8 µM [inhibitor, partial curve] | – | –
COc1ccc(CN(C(=O)c2ccco2)c2ccc(CC(=O)NC(C)c3ccccc3)cc2)cc1 (configuration not stated) | inconclusive: 39.8 µM [inhibitor, partial curve] | – | –
COCC(=O)N[C@@H](Cn1cc(Br)c(=O)[nH]c1=O)C(=O)O | – | inactive: -3.38% [at 174 µM] | –
C#CCNC(=O)c1cc(-c2ccccc2)nc2c1cnn2C | inconclusive: 50.1 µM [inhibitor, partial curve, poor fit] | – | –

SMILES | Potency | activity change, negative = cytotoxicity | outcome
O=C(NCC1CNCCOC1)c1ccc2nc(-c3ccc(F)cc3)cn2c1 (configuration not stated) | inconclusive: 89.1 µM [inhibitor, partial curve, poor fit] | – | –
CC(C)CCN1CCOc2cc(C(=O)Nc3ccccc3)ccc2C1 | active: 11.2 µM | – | –
O=C(NCC1CC1)C1CCCN(c2nccc(Nc3ccccc3F)n2)C1 (configuration not stated) | inconclusive: 50.1 µM [inhibitor, partial curve, poor fit] | – | –
C=CCNC(=O)CCc1c(C)nn(-c2ccc(F)cc2)c1Oc1cccc(F)c1 | inconclusive: 50.1 µM [inhibitor, partial curve, poor fit] | – | –
Cc1nnc2ccc(N3CCCC(NC(=O)c4ccc(Cl)cc4)C3)nn12 (configuration not stated) | inactive and inconclusive: 2.24 µM [inhibitor, partial curve, poor fit] | – | –
Cc1c(-c2ccccc2F)[nH]c2ccc(CNC(=O)CCN3CCCO3)cc12 | inconclusive: 39.8 µM [inhibitor, full curve] | – | –
O=C(NCC(F)F)C1CCCN(Cc2cccc(-c3ccsc3)c2)C1 (configuration not stated) | inconclusive: 50.1 µM [inhibitor, partial curve, poor fit] | – | –
COc1ccc(CNC(=O)CC[C@H]2CNC(=O)[C@@H]3[C@@H](CCN3Cc3ccccc3)N2C)cc1 | – | inactive: -11.6% | –
Cc1cn2nc(-c3nc(C4CCCN(C(=O)c5ccc(C)c(F)c5)C4)no3)cc2c(=O)[nH]1 (configuration not stated) | – | inactive: -8.09% | –
COc1ccccc1Nc1ccnc(N2CCC(NC(=O)Cc3ccccn3)CC2)n1 | inconclusive: 50.1 µM [inhibitor, partial curve, poor fit] | – | –
CN(C)c1cccc(C(=O)N2CCN(C(=O)c3nnn4c3COC(c3ccccc3)C4)CC2)c1 (configuration not stated) | inconclusive: 70.8 µM [inhibitor, single point] | – | –
CCc1nc(-c2ccc(OC3CCN(Cc4cccc(F)c4)C3)cc2)no1 (configuration not stated) | inconclusive: 25.1 µM [inhibitor, partial curve, poor fit] | – | –
COc1cccc(C(=O)N2CCCCC23Cc2ccccc2NC3=O)c1 (configuration not stated) | inconclusive: 89.1 µM [inhibitor, partial curve] | – | –
Cc1ccc(-c2nccn3cc(C(=O)O)nc23)cc1 | inconclusive: 35.5 µM [inhibitor, partial curve, poor fit] | – | –
O=C(NCc1ccccc1Cl)C1CCCN1Cc1ccc(-c2cncnc2)cc1 (configuration not stated) | inconclusive: 44.7 µM [inhibitor, partial curve, poor fit] | – | –
CC1=C[C@@H](CNC(=O)CCCC(=O)O)[C@H](C(C)C)C[C@H]1Cc1nc2ncccc2[nH]1 | – | inactive: -13.4% [at 174 µM] | –
O=C(CC(c1ccccc1)c1ccc2c(c1)OCO2)N1CCCCCC1 (configuration not stated) | inconclusive: 28.2 µM [inhibitor, partial curve, poor fit] | – | –
Cn1cnc2ccc(-c3ccncc3)nc2c1=O | active: 79.4 µM | – | –
COC(=O)[C@@H]1Cc2c([nH]c3ccccc23)[C@H]2C[C@@H](NCCNC(C)=O)C[C@@H](c3ccc(C(C)C)cc3)N21 | active: 28.2 µM | – | –
CN(Cc1ccc(F)cc1)Cc1cccc2ccccc12 | inconclusive: 112 µM [inhibitor, single point] | – | –
